Data published in patent US20200338209A1, “ANTI-B7-H3 ANTIBODIES AND ANTIBODY DRUG CONJUGATES” (AbbVie Inc., priority 2016, published 2020).

Legend:
[1] = Percentage aggregation of ADCs by size exclusion chromatography (SEC); assay type: physicochemical; details: huAb13 variants conjugated to payload CZ, Method A
Experimental: The DAR and percentage aggregation of ADCs synthesized were determined by LC-MS and size exclusion chromatography (SEC), respectively.
Size exclusion chromatography was performed using a Shodex KW802.5 column in 0.2 M potassium phosphate pH 6.2 with 0.25 mM potassium chloride and 15% IPA at a flow rate of 0.75 ml/min. The peak area absorbance at 280 nm was determined for each of the high molecular weight and monomeric eluents by integration of the area under the curve. The % aggregate fraction of the conjugate sample was determined by dividing the peak area absorbance at 280 nm for the high molecular weight eluent by the sum of the peak area absorbances at […] of the high molecular weight and monomeric eluents multiplied by 100%.

[2] = tested on: NCI-H847 (small cell lung cancer cell line); experiment: In vitro cell viability assay (CellTiter-Glo, 5 days), NCI-H847; assay type: cell-based, human; details: CZ conjugates of huAb13 variants; H847 cells; read-out: Cytotoxicity H847 Cell line IC50
Experimental: The tumor cell lines HCC38 (breast cancer), NCI-H1650 (NSCL), and NCI-H847 (small cell lung cancer cell line) were obtained from American Type Culture Collection (ATCC). Cells were grown in 96-well culture plates using recommended growth media overnight at a density of 5×10^3 (HCC38) or 20×10^3 (NCI-H847) or 40×10^3 (NCI-H1650) per well. The following day, treatments were added in fresh media to triplicate wells. Cellular viability was determined 5 days later using the CellTiter-Glo Luminescent Cell Viability Assay kit (Promega), as directed in the manufacturer's protocol. Cell viability was assessed as percentage of control untreated cells.

B1: huAb13v1-CZ (conjugate)
heavy: EVQLQESGPGLVKPSETLSLTCAVTGYSITSGYSWHWIRQFPGNGLEWMGYIHSSGSTNYNPSLKSRISISRDTSKNQFFLKLSSVTAADTAVYYCAGYDDYFEYWGQGTTVTVSSASTKGPSVFPLAPSSKSTSGGTAALGCLVKDYFPEPVTVSWNSGALTSGVHTFPAVLQSSGLYSLSSVVTVPSSSLGTQTYICNVNHKPSNTKVDKKV[omitted - human IgG1 Fc with changes]
light: DIQMTQSPSSLSASVGDRVTITCKASQNVGFNVAWYQQKPGKSPKALIYSASYRYSGVPSRFSGSGSGTDFTLTISSLQPEDFAEYFCQQYNWYPFTFGQGTKLEIKRTVAAPSVFIFPPSDEQLKSGTASVVCLLNNFYPREAKVQWKVDNALQSGNSQESVTEQDSKDSTYSLSSTLTLSKADYEKHKVYACEVTHQGLSSPVTKSFNRGEC
% agg by SEC [1]: 5.1%
IC50 [2]: 0.09 nM
